The campaign covered roughly 46,000 compounds. About 60 (0.1%) were called active. Another 3% or so got no clear call; they are omitted. Calls come from the whole dose curve; as a rule, active = well fitted inhibition curve with a large enough effect; inconclusive = small, poorly fitted or top-dose-only effect; inactive = no such curve, though single readings can be large or run the other way. This is one part of the list.
Experiment: Primary qHTS assay for Inhibitors of ovarian cancer metastasis using an organotypic tumor microenvironment (TME) model.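 For activity change, negative = inhibition: plate controls were DMSO wells for no effect and tomatine positive control wells for full effect.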 Note: nearly all actives have a fitted effect of over 65% in size.
Conditions: SKOV3ip1-GFP adhesion/invasion on 3D omental model, fluorescence; series mostly up to 45.8 µM; activity change, negative = inhibition: at the top concentration
Summary of the method: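 Primary human omental fibroblast/mesothelial 3D culture pre-formed 48 h. SKOV3ip1-GFP cells added with compounds (0.36-46 umol/L), incubated 2 h RT/16 h 37 C, fixed; GFP cells quantified at 488/509 nm.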

Activity change, negative = inhibition, inactive:
O=C(NCc1nc2ccccc2[nH]1)c1c(F)cccc1F -6.84%, O=C(CSc1nc(Nc2ccc(F)cc2)c2ccccc2n1)c1ccc(F)cc1 -5.01%, COc1ccc(CCNC(=O)c2cc3sccc3n2Cc2ccc(Cl)cc2)cc1OC -25.1%, CCOc1ccccc1CN1CCc2nc(Nc3ccc4c(c3)OCCO4)ncc2C1 2.74%, O=C(NCCc1ccccc1Cl)c1ccc2c(=O)n(-c3ccccc3)c(=O)[nH]c2c1 -9.69%, CCCS(=O)(=O)N1CC(=O)N(c2ccc(C)cc2)C(C)(C(=O)NC2CCCCCC2)C1 (stereo unspecified) -2.04%, Cc1cc(C)c2nc(NC(=O)c3ccc(S(=O)(=O)N4CCc5ccccc54)cc3)sc2c1 1.43%, Cc1ccc(CNc2ncnc3onc(-c4ccc(F)cc4)c23)cc1 -7.32%, Cc1oc2ncn(CC(C)C)c(=O)c2c1C(=O)NC(C)c1ccccc1 (stereo unspecified) -28.8%, O=C(Cn1c(=O)n(Cc2ccc3c(c2)OCO3)c(=O)c2oc3ccccc3c21)Nc1ccccc1F 3.32%, COCCn1c(C)cc(O)c(C(c2ccccc2)N2CCN(c3ccccc3)CC2)c1=O (stereo unspecified) 6.86%, COc1ccc(-c2nnc(SCC(=O)NC3CCCCC3)nc2-c2ccc(OC)cc2)cc1 -13%, COc1cc(OC)c(NC(=O)N2CCCn3nc(C)cc32)cc1Cl 6.21%, COc1ccc(C(=O)Nc2ccc3c(c2)CCCN3C(=O)c2cccs2)c(OC)c1 -2.06%, Cc1cccc(-n2ccnc2SCC(=O)Nc2cccc3ccccc23)c1C -9.2%, COc1ccccc1CNC(=O)c1cccn1-c1nnc(N2CCCCC2)s1 6.62%, COC(=O)c1c(NC(=O)Cc2coc3cc(C)ccc23)sc2c1CCCC2 0.0792%, COc1ccc(CNC(=O)c2cc(-c3ccc(OC)cc3)nc3n[nH]c(-c4cccc([N+](=O)[O-])c4)c23)cc1 -7.79%, CC(=O)N1CCc2c(sc3c2c(=O)n(-c2ccc(C)cc2)c(=O)n3Cc2c(F)cccc2Cl)C1 1.83%, Cc1ccc(CNC(=O)C2CCN(S(=O)(=O)c3ccc(F)cc3)CC2)cc1 8.41%, COc1cc(CNC(=O)C2CCCCN2S(=O)(=O)c2ccc(F)cc2)cc(OC)c1OC (stereo unspecified) 2.77%, CCOC(=O)c1c(S(=O)(=O)N2CCCC(C(=O)Nc3ccccn3)C2)c(C)n(C)c1C (stereo unspecified) 5.12%, CCc1cccc(NC(=O)CN2Cc3ccccc3C2=O)c1 -11.6%, CCOc1ccc(C2CC(=O)Nc3cc4c(cc32)OCO4)cc1OC (stereo unspecified) 17.9%, CCc1ccc(-n2c(=O)c3sc4ccccc4c3n(CC(=O)N3CCCC3)c2=O)cc1 -17.2%, O=C(CSc1nc2ccsc2c(=O)n1Cc1ccccc1Cl)NCc1ccc(F)cc1 7.77%, Cc1c(Cl)cccc1NC(=O)Cn1cc(C(=O)c2cccs2)c2ccccc21 5.86%, Cc1ccc(C)c(Cn2c(CCCNC(=O)C3CCCCC3)nc3ccccc32)c1 6%, O=C(Nc1cccc(O)c1)c1noc2c1CCc1ccccc1-2 -14.7%, O=C(Nc1c2c(nn1-c1ccc(Cl)cc1)CS(=O)(=O)C2)c1cccc(F)c1 14.2%, CC(C)CN(CC(C)C)S(=O)(=O)c1ccc(C(=O)Nc2sc3c(c2C(N)=O)CC(C)(C)NC3(C)C)cc1 -2.51%, CC(=O)Nc1ccc([C@H](C)C(=O)Nc2ncc(C(C)C)s2)cc1 -0.837%, COc1cc2ncn(-c3cc(OCc4ccccc4S(C)(=O)=O)c(C#N)s3)c2cc1OC -0.105%, Cc1cccc(OCc2ccc(-c3nc(C#N)c(NCc4cccnc4)o3)o2)c1 0.657%, CCC(=O)N1CCc2cc(OC)c(OC)cc2C1COc1ccccc1OC (stereo unspecified) -6.81%, O=C(CSc1nc(-c2cccc(F)c2)[nH]c1-c1ccccc1)Nc1ccc2c(c1)OCCO2 -6.61%, CCOc1ccccc1NC(=O)c1c(NCc2cccs2)sc2c1CCC(C)C2 (stereo unspecified) 5.07%, CC(C)c1nn2c(=O)cc(COC(=O)c3ccccc3NC(=O)COc3ccccc3)nc2s1 15.8%, COC(=O)c1ccc(C2c3c(-c4ccccc4O)n[nH]c3C(=O)N2Cc2ccncc2)cc1 (stereo unspecified) 0.634%, COc1ccc(-c2nc(CNS(=O)(=O)c3ccc(Br)cc3)cs2)cc1 -20.1%, Cc1cc(C)nc(-n2nc(C)c3c2N(C)C(=O)CC3c2ccc(Cl)cc2)n1 (stereo unspecified) 1.72%, Cc1c(C(=O)Nc2cccc(Cl)c2)oc2ccc(S(=O)(=O)N3CCCCCC3)cc12 9.97%, Cc1ccc(CN2COc3ccc4c(-c5ccccc5)cc(=O)oc4c3C2)cc1 -15%, NC(=O)c1ncn([C@@H]2O[C@H](CO)[C@@H](O)[C@@H]2O)c1O 0.746%, COc1cc(NC(=O)CSc2nc(-c3ccco3)cc(C(F)(F)F)n2)cc(OC)c1OC -12.9%, CCc1cc(C(=O)NCc2ccccc2)no1 15.8%, O=C(NCc1ccccc1)C(=O)Nc1ccc2nc3n(c(=O)c2c1)CCCCC3 2.11%, Cc1nnc(NC(=O)c2nc(SCc3ccccc3F)ncc2Cl)s1 0.94%, CC(NC(=O)Cc1ccc(NC(=O)N2CCSc3ncccc32)cc1)c1ccccc1 (stereo unspecified) 10.7%, Cc1cc(-c2ccc(S(=O)(=O)Nc3ccccc3F)s2)on1 -8.73%, Cn1c(-n2cccc2)c(-c2c(-c3ccccc3)[nH]c3c2c(=O)[nH]c(=O)n3C)c(=O)[nH]c1=O 3.62%, CC(=O)Nc1ccc(NC(=O)CSc2nc3ccccc3nc2N2CCCCC2)cc1 -5.02%, COc1ccc(C(=O)Nc2cc(C)c(O)c(-c3nc4ccccc4s3)c2)cc1OC 45.6%, O=C(Nc1cccc(-c2cn3cccnc3n2)c1)c1cc(Br)ccc1Cl 3.62%, CCOC(=O)c1[nH]c(C)c(C(=O)NC(CC)Cc2ccccc2)c1C (stereo unspecified) -6.17%, CCN(Cc1ccccc1)C(=O)CN1C(=O)COc2ccc(S(=O)(=O)NC3CCCC3)cc21 1.62%, CCOc1ccc(CNC(=O)c2ccc(CS(=O)Cc3ccc(Cl)cc3)o2)cc1 (stereo unspecified) 11.5%, CCOC(=O)CSc1nc2sc3c(c2c(=O)n1-c1ccccc1)CC(C(C)C)OC3 (stereo unspecified) 0.0934%, Cc1oc(=O)oc1CN1CCN(c2cc3c(cc2F)c(=O)c(C(=O)O)c2n3C(C)S2)CC1 (stereo unspecified) -11.2%, COc1cccc(CNC(=O)c2ccc3c(c2)nc2n3CCOC2)c1 -3.06%, O=C(NCCc1ccccc1)c1ccc(CSc2nc3ccncc3n2Cc2ccc(F)cc2)cc1 0.261%, CCc1ccc2oc(C(=O)Nc3sc4c(c3C(=O)NC)CCCC4)cc(=O)c2c1 1.94%, O=C(Nc1ccc(Cl)cc1F)c1cc(S(=O)(=O)NCc2ccc3c(c2)OCO3)ccc1F -7.83%, CCCCOC(=O)c1cccc(NC(=O)c2cc3ccccc3o2)c1 -25.1%, CCOc1ccc(C(=O)Nc2cccc(OCc3cc(=O)n4cc(C)sc4n3)c2)cc1 4.31%, O=[N+]([O-])c1ccc(C(c2sc3nc(-c4ccco4)nn3c2O)N2CCN(c3cccc(Cl)c3)CC2)cc1 (stereo unspecified) 0.737%, CCOC(=O)c1cc2c(=O)n3ccccc3nc2n(CC2CCCO2)c1=NC(=O)c1ccc(C)cc1 (stereo unspecified) -9.4%, COc1ccc(-c2nc3ccccc3o2)cc1NC(=O)COc1ccc(C(C)(C)C)cc1 -5.06%, COc1cccc(N2CC(NC(=O)c3ccc(S(=O)(=O)N4CCCCC4)cc3)CC2=O)c1 (stereo unspecified) 0.851%, CCOc1ccc(S(=O)(=O)NCC(c2ccco2)S(=O)(=O)c2ccc(F)cc2)cc1 (stereo unspecified) 1.48%, Cc1ccccc1OC(=O)CSc1nnc(-c2cccs2)o1 3.05%, CC(Oc1ccccc1Cl)C(=O)N1CCN(CCc2ccccn2)CC1 (stereo unspecified) -15.3%, COc1cc(NC(=O)c2cc3c(=O)n(Cc4cccs4)ccc3nc2C)cc(OC)c1OC 1.42%

outcome, inactive:
CCOc1ccc(NC(=O)Cn2c(=O)c(CNc3ccc(CC)cc3)cc3cc4c(cc32)OCO4)cc1, CCN(C(=O)Cn1cnc2onc(-c3ccc(F)cc3)c2c1=O)c1ccc(OC)cc1, CCOc1ccc(Nc2nnc(-n3nc(C)cc3C)c3ccccc23)cc1, COc1ccc(CN2CCc3c(c(=O)n4ncc(C(=O)N5CCN(c6ccc(F)cc6)CC5)c4n3C)C2)cc1, COc1ccc(-c2cc(C)no2)cc1S(=O)(=O)NCc1cccs1, Cc1nc(-c2cccc(NC(=O)Nc3ccccc3C(F)(F)F)c2)no1, Cc1ccc2cccc(NC(=O)COc3ccccc3Cl)c2n1, Cc1ccc(-c2nc(CS(=O)CC(=O)N3CCN(c4cccc(Cl)c4)CC3)c(C)o2)cc1 (stereo unspecified), CCCOc1cccc(C2c3c(oc4ccccc4c3=O)C(=O)N2c2nncs2)c1 (stereo unspecified), COc1cccc(C(=O)c2cn(CC(=O)NCc3ccccc3Cl)c3nc(C)ccc3c2=O)c1, CCc1ccc(NC(=O)CCCc2nnc3n(CC(C)C)c(=O)c4sccc4n23)cc1, Cc1nnc(NC(=O)CSc2nccn2Cc2ccc(F)cc2)s1, COc1ccccc1NC(=O)CN1C(=O)C2(SCC(=O)N2c2ccc(F)c(F)c2)c2ccccc21 (stereo unspecified), CCCOc1ccc(C(=O)Nc2ccc(NC(=O)c3ccccc3)c(Br)c2)cc1, Cc1ccc2c(c1)N(CC(=O)NCCc1ccc(Cl)cc1)C(=O)c1cccnc1O2, Cc1ccc(C)c(NC(=O)Cn2c(=O)n(CC3CCCO3)c(=O)c3ccccc32)c1 (stereo unspecified), O=C(CN1C(=O)COc2ccc(S(=O)(=O)NC3CCCC3)cc21)Nc1ccc(Cl)cc1, Cc1ccc(-c2nnn3c2nc(NCC(C)c2ccccc2)c2ccccc23)cc1 (stereo unspecified), CCCCn1cc(S(=O)(=O)c2cccc(C)c2)c(=O)c2cc(F)c(N3CCOCC3)cc21, CN(C)CCn1c2c(c(SCC(=O)Nc3ccc(F)cc3F)nc1=O)CCC2, COc1cccc(CNCCSc2nnnn2C)c1OCc1ccccc1F, CCOC(=O)c1c(S(=O)(=O)N2CCCC(C(=O)N3CCN(c4ccccc4)CC3)C2)c(C)n(C)c1C (stereo unspecified), Cc1ccc(C)c(Cn2nc(-c3cc(C)ccc3C)ccc2=O)c1

— PubChem BioAssay AID1963576 (National Center for Advancing Translational Sciences (NCATS), 2024)
